# In the supplement of paper PMC8728848:
# This is one part of the list.
# B1: SAOUHSC 00176 (Staphylococcus aureus) (protein)
# chain: MSKILKCITLAVVMLLIVTACGPNRSKEDIDKALNKDNSKDKPNQLTMWVDGDKQMAFYKKITDQYTKKTGIKVKLVNIGQNDQLENISLDAPAGKGPDIFFLAHDNTGSAYLQGLAAEIKLSKDELKGFNKQALKAMNYDNKQLALPAIVETTALFYNKKLVKNAPQTLEEVEANAAKLTDSKKKQYGMLFDAKNFYFNYPFLFGNDDYIFKKNGSEYDIHQLGLNSKHVVKNAERLQKWYDKGYLPKAATHDVMIGLFKEGKVGQFVTGPWNINEYQETFGKDLGVTTLPTDGGKPMKPFLGVRGWYLSEYSKHKYWAKDLMLYITSKDTLQKYTDEMSEITGRVDVKSSNPNLKVFEKQARHAEPMPNIPEMRQVWEPMGNASIFISNGKNPKQALDEATNDITQNIKILHPSQNDKKGD
# Assays:
# Test in all cases: glycan array binding signal (z-score within array); higher = stronger binding
# Details in all cases: glycan notation: IUPAC condensed, linker removed
# [1] = target: Gal(b1-4)GlcNAc(b1-3)Gal(b1-4)GlcNAc(b1-3)Gal(b1-4)GlcNAc(b1-2)Man(a1-3)[Gal(b1-4)GlcNAc(b1-3)Gal(b1-4)GlcNAc(b1-3)Gal(b1-4)GlcNAc(b1-2)Man(a1-6)]Man(b1-4)GlcNAc(b1-4)GlcNAc
# Method in brief: (§1)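 The binding signal is a Z-score computed within each array and averaged over linkers. Arrays of the same protein sequence at different concentrations or buffers were also averaged together. Data originate from 3228 arrays in the Consortium for Functional Glycomics database, kept only where the protein sequence was available.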
# [2] = target: Gal(b1-4)GlcNAc(b1-3)Gal(b1-4)GlcNAc(b1-3)Gal(b1-4)GlcNAc(b1-2)Man(a1-3)[Gal(b1-4)GlcNAc(b1-3)Gal(b1-4)GlcNAc(b1-3)Gal(b1-4)GlcNAc(b1-2)Man(a1-6)]Man(b1-4)GlcNAc(b1-4)[Fuc(a1-6)]GlcNAc
# Method in brief: as §1
# [3] = target: Gal(b1-4)GlcNAc(b1-3)Gal(b1-4)GlcNAc(b1-3)Gal(b1-4)GlcNAc(b1-2)[Gal(b1-4)GlcNAc(b1-3)Gal(b1-4)GlcNAc(b1-3)Gal(b1-4)GlcNAc(b1-6)]Man(a1-6)[Gal(b1-4)GlcNAc(b1-3)Gal(b1-4)GlcNAc(b1-3)Gal(b1-4)GlcNAc(b1-2)Man(a1-3)]Man(b1-4)GlcNAc(b1-4)[Fuc(a1-6)]GlcNAc
# Method in brief: as §1
# [4] = target: Gal(b1-4)GlcNAc(b1-3)Gal(b1-4)GlcNAc(b1-3)Gal(b1-4)GlcNAc(b1-3)Gal(b1-4)GlcNAc(b1-2)Man(a1-3)[Gal(b1-4)GlcNAc(b1-3)Gal(b1-4)GlcNAc(b1-3)Gal(b1-4)GlcNAc(b1-3)Gal(b1-4)GlcNAc(b1-2)Man(a1-6)]Man(b1-4)GlcNAc(b1-4)GlcNAc
# Method in brief: as §1
# [5] = target: Gal(b1-4)GlcNAc(b1-3)Gal(b1-4)GlcNAc(b1-3)Gal(b1-4)GlcNAc(b1-3)Gal(b1-4)GlcNAc(b1-2)Man(a1-3)[Gal(b1-4)GlcNAc(b1-3)Gal(b1-4)GlcNAc(b1-3)Gal(b1-4)GlcNAc(b1-3)Gal(b1-4)GlcNAc(b1-2)Man(a1-6)]Man(b1-4)GlcNAc(b1-4)[Fuc(a1-6)]GlcNAc
# Method in brief: as §1
# [6] = target: Gal(b1-4)GlcNAc(b1-3)Gal(b1-4)GlcNAc(b1-3)Gal(b1-4)GlcNAc(b1-3)Gal(b1-4)GlcNAc(b1-2)[Gal(b1-4)GlcNAc(b1-3)Gal(b1-4)GlcNAc(b1-3)Gal(b1-4)GlcNAc(b1-3)Gal(b1-4)GlcNAc(b1-6)]Man(a1-6)[Gal(b1-4)GlcNAc(b1-3)Gal(b1-4)GlcNAc(b1-3)Gal(b1-4)GlcNAc(b1-3)Gal(b1-4)GlcNAc(b1-2)Man(a1-3)]Man(b1-4)GlcNAc(b1-4)[Fuc(a1-6)]GlcNAc
# Method in brief: as §1
# [7] = target: Gal(b1-4)GlcNAc(b1-3)Gal(b1-4)GlcNAc(b1-3)Gal(b1-4)GlcNAc(b1-3)Gal(b1-4)GlcNAc(b1-3)Gal(b1-4)GlcNAc(b1-2)Man(a1-3)[Gal(b1-4)GlcNAc(b1-3)Gal(b1-4)GlcNAc(b1-3)Gal(b1-4)GlcNAc(b1-3)Gal(b1-4)GlcNAc(b1-3)Gal(b1-4)GlcNAc(b1-2)Man(a1-6)]Man(b1-4)GlcNAc(b1-4)GlcNAc
# Method in brief: as §1
# [8] = target: Gal(b1-4)GlcNAc(b1-3)Gal(b1-4)GlcNAc(b1-3)Gal(b1-4)GlcNAc(b1-3)Gal(b1-4)GlcNAc(b1-3)Gal(b1-4)GlcNAc(b1-2)Man(a1-3)[Gal(b1-4)GlcNAc(b1-3)Gal(b1-4)GlcNAc(b1-3)Gal(b1-4)GlcNAc(b1-3)Gal(b1-4)GlcNAc(b1-3)Gal(b1-4)GlcNAc(b1-2)Man(a1-6)]Man(b1-4)GlcNAc(b1-4)[Fuc(a1-6)]GlcNAc
# Method in brief: as §1
# [9] = target: Gal(b1-4)GlcNAc(b1-3)Gal(b1-4)GlcNAc(b1-3)Gal(b1-4)GlcNAc(b1-3)Gal(b1-4)GlcNAc(b1-3)Gal(b1-4)GlcNAc(b1-2)[Gal(b1-4)GlcNAc(b1-3)Gal(b1-4)GlcNAc(b1-3)Gal(b1-4)GlcNAc(b1-3)Gal(b1-4)GlcNAc(b1-3)Gal(b1-4)GlcNAc(b1-6)]Man(a1-6)[Gal(b1-4)GlcNAc(b1-3)Gal(b1-4)GlcNAc(b1-3)Gal(b1-4)GlcNAc(b1-3)Gal(b1-4)GlcNAc(b1-3)Gal(b1-4)GlcNAc(b1-2)Man(a1-3)]Man(b1-4)GlcNAc(b1-4)[Fuc(a1-6)]GlcNAc
# Method in brief: as §1
# [10] = target: Gal(b1-4)GlcNAc(b1-3)Gal(b1-4)GlcNAc(b1-3)Gal(b1-4)GlcNAc(b1-3)Gal(b1-4)GlcNAc(b1-3)Gal(b1-4)GlcNAc(b1-3)Gal(b1-4)GlcNAc(b1-2)Man(a1-3)[Gal(b1-4)GlcNAc(b1-3)Gal(b1-4)GlcNAc(b1-3)Gal(b1-4)GlcNAc(b1-3)Gal(b1-4)GlcNAc(b1-3)Gal(b1-4)GlcNAc(b1-3)Gal(b1-4)GlcNAc(b1-2)Man(a1-6)]Man(b1-4)GlcNAc(b1-4)GlcNAc
# Method in brief: as §1
# [11] = target: Gal(b1-4)GlcNAc(b1-3)Gal(b1-4)GlcNAc(b1-3)GalNAc
# Method in brief: as §1
# [12] = target: Gal(b1-4)GlcNAc(b1-3)Gal(b1-4)GlcNAc(b1-3)[Gal(b1-4)GlcNAc(b1-3)Gal(b1-4)GlcNAc(b1-6)]GalNAc
# Method in brief: as §1
# [13] = target: Gal(b1-4)GlcNAc(b1-3)Gal(b1-4)GlcNAc(b1-6)[Gal(b1-3)]GalNAc
# Method in brief: as §1
# [14] = target: Gal(b1-4)GlcNAc(b1-3)Gal(b1-4)[Fuc(a1-3)]GlcNAc(b1-3)Gal(b1-4)[Fuc(a1-3)]GlcNAc
# Method in brief: as §1
# [15] = target: Gal(b1-4)GlcNAc(b1-3)GalNAc
# Method in brief: as §1
# [16] = target: Gal(b1-4)GlcNAc(b1-3)[Fuc(a1-3)GlcNAc(b1-6)]Gal(b1-4)Glc
# Method in brief: as §1
# [17] = target: Gal(b1-4)GlcNAc(b1-3)[Gal(b1-4)GlcNAc(b1-6)]Gal(b1-4)GlcNAc
# Method in brief: as §1
# [18] = target: Gal(b1-4)GlcNAc(b1-3)[GlcNAc(b1-6)]Gal(b1-4)GlcNAc
# Method in brief: as §1
# [19] = target: Gal(b1-4)GlcNAc(b1-6)Gal(b1-4)GlcNAc
# Method in brief: as §1
binder,measurement,setting,value
B1,glycan array binding signal (z-score),[1],0.055
same,glycan array binding signal (z-score),[2],-0.016
same,glycan array binding signal (z-score),[3],0.056
same,glycan array binding signal (z-score),[4],0.201
same,glycan array binding signal (z-score),[5],0.032
same,glycan array binding signal (z-score),[6],-0.068
same,glycan array binding signal (z-score),[7],-0.05
same,glycan array binding signal (z-score),[8],0.051
same,glycan array binding signal (z-score),[9],0.091
same,glycan array binding signal (z-score),[10],-0.112
same,glycan array binding signal (z-score),[11],0.003
same,glycan array binding signal (z-score),[12],0.087
same,glycan array binding signal (z-score),[13],-0.048
same,glycan array binding signal (z-score),[14],-0.146
same,glycan array binding signal (z-score),[15],-0.132
same,glycan array binding signal (z-score),[16],-0.045
same,glycan array binding signal (z-score),[17],-0.134
same,glycan array binding signal (z-score),[18],0.01
same,glycan array binding signal (z-score),[19],-0.109
